Source: article PMC12524662
Results are given in words; binding and its absence hold for the method and conditions named. In cells and extracts the contact can be indirect. Some entries that bind do so weakly or less than the wild type. Sequences can lack the tags named with a protein.

Protein sequences, listed by entry. Tags and fused reporters are not part of them.
UniProt P50750: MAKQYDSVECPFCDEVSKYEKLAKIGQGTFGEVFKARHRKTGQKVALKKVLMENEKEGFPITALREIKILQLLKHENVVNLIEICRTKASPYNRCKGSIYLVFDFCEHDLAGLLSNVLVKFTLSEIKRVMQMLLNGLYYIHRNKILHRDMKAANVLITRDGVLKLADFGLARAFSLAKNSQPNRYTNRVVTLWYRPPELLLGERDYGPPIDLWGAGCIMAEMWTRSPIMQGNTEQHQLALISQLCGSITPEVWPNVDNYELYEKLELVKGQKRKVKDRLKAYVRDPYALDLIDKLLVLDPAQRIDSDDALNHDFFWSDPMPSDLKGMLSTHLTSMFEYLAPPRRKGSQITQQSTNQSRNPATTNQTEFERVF
UniProt O43143: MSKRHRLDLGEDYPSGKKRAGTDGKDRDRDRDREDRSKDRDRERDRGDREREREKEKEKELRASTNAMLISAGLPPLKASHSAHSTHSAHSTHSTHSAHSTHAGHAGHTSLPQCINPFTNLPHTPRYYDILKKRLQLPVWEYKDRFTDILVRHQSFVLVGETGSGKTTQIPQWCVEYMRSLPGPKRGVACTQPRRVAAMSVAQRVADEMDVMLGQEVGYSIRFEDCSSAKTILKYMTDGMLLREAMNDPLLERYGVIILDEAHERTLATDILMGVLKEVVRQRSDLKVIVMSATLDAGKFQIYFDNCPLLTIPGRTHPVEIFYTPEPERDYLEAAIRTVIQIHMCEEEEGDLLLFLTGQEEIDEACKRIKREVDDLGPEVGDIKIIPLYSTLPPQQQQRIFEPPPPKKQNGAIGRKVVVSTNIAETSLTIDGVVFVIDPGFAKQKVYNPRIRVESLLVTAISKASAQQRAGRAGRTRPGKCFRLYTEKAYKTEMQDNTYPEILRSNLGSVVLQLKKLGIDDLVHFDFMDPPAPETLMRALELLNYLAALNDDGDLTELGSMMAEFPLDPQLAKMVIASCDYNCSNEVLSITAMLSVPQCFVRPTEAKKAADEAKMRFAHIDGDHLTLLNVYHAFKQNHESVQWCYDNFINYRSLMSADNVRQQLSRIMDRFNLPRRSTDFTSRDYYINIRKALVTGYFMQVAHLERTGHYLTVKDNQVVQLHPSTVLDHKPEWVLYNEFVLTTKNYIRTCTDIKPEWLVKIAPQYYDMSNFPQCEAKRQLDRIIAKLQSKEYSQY
UniProt Q92841: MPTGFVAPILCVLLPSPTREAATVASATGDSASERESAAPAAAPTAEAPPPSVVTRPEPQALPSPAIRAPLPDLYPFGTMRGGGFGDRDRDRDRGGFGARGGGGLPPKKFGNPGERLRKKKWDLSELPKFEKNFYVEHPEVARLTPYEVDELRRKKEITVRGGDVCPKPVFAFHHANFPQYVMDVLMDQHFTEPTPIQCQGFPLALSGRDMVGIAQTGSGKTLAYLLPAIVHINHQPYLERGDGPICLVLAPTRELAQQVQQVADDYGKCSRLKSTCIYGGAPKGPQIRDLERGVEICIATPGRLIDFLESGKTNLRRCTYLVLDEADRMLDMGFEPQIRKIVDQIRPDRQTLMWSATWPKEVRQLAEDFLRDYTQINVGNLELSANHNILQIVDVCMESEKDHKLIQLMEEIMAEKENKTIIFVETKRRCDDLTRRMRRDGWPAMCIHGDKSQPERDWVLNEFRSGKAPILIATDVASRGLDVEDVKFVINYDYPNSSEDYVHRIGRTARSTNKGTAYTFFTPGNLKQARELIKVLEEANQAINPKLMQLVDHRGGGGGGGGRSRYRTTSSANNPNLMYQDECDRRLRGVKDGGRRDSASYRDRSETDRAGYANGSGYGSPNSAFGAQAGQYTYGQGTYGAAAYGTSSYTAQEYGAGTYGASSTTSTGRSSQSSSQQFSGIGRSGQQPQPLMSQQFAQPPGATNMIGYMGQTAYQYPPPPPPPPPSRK
UniProt O94992: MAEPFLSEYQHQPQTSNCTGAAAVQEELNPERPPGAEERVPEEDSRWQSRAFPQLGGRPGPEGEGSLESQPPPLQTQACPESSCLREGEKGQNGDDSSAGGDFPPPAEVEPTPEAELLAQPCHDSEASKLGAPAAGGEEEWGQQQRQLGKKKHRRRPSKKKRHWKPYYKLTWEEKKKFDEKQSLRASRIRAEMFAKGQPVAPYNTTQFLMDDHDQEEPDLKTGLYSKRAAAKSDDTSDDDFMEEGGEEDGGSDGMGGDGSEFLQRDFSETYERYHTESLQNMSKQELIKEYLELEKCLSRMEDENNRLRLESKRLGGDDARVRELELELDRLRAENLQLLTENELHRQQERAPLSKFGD
UniProt Q12905: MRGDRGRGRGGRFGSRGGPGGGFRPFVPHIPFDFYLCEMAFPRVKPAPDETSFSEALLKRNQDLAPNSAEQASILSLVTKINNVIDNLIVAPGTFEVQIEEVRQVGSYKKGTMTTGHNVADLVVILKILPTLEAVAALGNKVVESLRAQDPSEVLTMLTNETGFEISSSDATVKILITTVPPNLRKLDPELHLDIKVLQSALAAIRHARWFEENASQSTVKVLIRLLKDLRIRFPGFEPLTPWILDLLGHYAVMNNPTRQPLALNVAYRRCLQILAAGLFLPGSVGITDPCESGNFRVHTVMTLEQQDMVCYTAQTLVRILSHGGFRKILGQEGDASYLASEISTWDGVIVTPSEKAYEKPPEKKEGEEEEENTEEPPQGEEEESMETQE
UniProt Q68E01: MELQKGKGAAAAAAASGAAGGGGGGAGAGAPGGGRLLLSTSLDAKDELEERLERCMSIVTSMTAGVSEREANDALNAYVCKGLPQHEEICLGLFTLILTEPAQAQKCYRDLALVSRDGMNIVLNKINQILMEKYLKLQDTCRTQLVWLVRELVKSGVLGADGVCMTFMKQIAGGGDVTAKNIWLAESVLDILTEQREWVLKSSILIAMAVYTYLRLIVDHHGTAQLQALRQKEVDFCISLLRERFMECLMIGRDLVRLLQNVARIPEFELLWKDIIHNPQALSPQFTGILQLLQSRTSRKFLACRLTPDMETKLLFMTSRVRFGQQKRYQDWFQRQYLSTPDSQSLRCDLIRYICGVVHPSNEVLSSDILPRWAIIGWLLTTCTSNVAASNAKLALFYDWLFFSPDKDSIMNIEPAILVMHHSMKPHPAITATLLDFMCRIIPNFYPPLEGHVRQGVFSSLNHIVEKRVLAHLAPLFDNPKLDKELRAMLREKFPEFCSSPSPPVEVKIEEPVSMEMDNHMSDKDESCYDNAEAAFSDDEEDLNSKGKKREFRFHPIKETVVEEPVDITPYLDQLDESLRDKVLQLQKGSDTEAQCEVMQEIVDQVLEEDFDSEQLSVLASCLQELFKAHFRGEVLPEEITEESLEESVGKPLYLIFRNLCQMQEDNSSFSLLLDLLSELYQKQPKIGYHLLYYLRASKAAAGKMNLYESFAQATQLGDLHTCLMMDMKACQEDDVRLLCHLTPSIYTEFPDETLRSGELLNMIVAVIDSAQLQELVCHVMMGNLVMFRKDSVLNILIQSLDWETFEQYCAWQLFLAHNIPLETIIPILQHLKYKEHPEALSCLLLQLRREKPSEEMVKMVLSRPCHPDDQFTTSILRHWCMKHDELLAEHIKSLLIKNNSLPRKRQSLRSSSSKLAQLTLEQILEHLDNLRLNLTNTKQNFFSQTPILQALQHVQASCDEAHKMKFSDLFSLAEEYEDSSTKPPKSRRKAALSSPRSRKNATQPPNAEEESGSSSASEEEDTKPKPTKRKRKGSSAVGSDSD
UniProt P11387: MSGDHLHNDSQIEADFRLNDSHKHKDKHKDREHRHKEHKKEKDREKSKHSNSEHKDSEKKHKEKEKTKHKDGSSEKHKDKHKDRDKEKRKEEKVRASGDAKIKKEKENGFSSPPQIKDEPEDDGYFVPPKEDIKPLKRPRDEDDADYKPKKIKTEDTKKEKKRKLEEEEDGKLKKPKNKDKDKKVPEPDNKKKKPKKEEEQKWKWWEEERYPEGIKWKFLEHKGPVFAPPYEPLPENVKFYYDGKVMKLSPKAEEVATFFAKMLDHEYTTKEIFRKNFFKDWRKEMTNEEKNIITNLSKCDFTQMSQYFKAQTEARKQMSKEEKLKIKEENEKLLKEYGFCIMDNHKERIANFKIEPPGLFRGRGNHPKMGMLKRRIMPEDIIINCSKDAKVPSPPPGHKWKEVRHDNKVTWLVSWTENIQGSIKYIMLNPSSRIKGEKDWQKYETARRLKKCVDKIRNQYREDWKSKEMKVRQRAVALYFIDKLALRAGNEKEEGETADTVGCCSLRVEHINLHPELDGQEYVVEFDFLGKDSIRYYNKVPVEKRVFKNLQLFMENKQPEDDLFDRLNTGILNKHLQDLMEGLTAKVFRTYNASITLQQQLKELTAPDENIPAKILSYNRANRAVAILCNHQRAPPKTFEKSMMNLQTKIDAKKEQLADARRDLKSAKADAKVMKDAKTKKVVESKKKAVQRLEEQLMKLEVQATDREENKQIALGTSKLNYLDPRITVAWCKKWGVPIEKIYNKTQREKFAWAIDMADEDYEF
UniProt O60293: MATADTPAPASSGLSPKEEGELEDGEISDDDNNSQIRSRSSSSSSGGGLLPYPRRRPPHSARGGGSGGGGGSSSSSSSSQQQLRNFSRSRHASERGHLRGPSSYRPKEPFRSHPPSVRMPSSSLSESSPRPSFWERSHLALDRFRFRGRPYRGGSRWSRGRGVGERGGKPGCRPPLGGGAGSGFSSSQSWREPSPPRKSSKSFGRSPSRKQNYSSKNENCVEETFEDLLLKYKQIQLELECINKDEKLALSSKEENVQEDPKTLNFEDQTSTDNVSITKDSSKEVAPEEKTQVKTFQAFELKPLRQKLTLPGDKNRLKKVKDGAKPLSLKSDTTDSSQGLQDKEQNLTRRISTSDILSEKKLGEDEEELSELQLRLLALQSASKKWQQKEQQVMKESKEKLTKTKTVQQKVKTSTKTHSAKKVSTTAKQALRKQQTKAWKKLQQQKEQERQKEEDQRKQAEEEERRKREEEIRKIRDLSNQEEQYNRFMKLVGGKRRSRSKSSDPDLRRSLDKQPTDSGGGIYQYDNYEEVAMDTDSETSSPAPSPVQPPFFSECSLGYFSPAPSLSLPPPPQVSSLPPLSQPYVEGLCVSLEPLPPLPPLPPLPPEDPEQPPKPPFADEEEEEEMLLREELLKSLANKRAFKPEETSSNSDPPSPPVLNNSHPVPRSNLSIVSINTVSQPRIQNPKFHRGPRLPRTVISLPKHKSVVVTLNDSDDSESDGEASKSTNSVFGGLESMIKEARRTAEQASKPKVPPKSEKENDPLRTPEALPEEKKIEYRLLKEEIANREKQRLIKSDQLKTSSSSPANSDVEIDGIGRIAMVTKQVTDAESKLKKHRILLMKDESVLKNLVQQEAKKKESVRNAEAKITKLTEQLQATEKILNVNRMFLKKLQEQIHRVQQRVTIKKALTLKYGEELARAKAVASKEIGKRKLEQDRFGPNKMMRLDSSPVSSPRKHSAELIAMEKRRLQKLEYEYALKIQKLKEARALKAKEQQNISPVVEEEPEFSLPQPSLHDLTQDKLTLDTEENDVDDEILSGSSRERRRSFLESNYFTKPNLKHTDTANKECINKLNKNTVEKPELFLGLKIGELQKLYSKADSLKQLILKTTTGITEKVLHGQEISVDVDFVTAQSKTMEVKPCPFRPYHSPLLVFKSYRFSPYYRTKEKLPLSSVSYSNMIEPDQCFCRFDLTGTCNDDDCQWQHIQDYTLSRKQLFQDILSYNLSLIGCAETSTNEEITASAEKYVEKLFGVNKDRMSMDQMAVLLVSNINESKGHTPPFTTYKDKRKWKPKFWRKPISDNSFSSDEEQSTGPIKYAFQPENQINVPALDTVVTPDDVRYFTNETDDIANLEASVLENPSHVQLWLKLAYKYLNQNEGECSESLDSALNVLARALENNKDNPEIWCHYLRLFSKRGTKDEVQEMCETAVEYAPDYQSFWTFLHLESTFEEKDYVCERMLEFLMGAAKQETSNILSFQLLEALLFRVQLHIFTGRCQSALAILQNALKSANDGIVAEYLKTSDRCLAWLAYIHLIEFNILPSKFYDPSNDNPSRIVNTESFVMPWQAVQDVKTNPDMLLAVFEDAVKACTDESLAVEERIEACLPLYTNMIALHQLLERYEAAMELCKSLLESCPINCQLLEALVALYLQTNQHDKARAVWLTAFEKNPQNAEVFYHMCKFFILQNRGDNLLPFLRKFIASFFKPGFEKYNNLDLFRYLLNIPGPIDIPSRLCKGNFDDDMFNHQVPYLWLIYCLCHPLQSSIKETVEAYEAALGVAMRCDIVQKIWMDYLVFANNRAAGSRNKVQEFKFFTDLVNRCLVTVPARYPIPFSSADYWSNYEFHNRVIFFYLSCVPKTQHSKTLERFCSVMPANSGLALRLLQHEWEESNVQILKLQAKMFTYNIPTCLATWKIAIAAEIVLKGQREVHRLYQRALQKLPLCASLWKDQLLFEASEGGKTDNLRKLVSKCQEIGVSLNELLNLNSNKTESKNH

Molecular target: T1, NRDE2 (nuclear RNAi-defective 2), endogenous, untagged (human (endogenous in HEK293T)) (UniProt Q9H7Z3)
T1 sequence: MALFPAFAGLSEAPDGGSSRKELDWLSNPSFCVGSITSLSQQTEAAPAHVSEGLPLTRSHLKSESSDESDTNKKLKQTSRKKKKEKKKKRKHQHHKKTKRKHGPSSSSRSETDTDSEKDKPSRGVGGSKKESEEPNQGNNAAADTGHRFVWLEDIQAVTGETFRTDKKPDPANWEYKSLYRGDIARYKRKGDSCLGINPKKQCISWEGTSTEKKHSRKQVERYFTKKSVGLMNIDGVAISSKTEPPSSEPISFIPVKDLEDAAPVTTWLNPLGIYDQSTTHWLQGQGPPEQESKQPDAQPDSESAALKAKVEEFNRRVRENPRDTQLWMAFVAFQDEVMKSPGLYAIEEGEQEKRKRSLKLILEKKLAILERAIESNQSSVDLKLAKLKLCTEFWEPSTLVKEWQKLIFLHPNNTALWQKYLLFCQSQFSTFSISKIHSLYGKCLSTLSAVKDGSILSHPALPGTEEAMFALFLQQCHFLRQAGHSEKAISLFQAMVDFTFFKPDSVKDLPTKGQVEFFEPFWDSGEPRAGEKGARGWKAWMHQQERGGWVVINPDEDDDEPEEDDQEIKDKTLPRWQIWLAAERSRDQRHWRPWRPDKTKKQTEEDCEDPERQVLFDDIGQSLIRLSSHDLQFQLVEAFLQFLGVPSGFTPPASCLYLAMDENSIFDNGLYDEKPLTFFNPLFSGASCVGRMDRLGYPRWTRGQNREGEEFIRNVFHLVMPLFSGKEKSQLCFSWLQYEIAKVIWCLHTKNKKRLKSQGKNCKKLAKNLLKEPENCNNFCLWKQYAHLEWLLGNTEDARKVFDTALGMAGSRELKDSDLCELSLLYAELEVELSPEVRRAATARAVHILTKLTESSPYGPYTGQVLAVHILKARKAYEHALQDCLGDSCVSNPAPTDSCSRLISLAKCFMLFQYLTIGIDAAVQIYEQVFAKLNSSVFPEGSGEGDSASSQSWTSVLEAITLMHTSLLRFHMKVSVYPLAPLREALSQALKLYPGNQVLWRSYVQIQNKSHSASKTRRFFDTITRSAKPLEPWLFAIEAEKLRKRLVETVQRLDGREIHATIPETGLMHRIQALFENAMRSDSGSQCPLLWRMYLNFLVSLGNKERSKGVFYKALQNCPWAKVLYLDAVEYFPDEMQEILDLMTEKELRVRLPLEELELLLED
Assay: co-IP; nuclear extracts (250 ug) of parental HEK293T immunoprecipitated with NRDE2 antibody or IgG control (2 ug) overnight at 4 °C; 3 washes with 20 mM Tris pH 8, 3 mM KCl, 150 mM NaCl, 1 mM MgCl2, 0.2% Triton X-100; immunoblot

CDK9, subunit of the positive transcription elongation factor b (P-TEFb) (from UniProt P50750 1-372) (enzyme)
binding: binds

DDX15 (from UniProt O43143 1-795)
binding: binds

DDX17 (from UniProt Q92841 1-729)
binding: binds

HEXIM1 (from UniProt O94992 1-359)
binding: no binding

ILF2 (from UniProt Q12905 1-390)
binding: binds

INTS3, subunit of the Integrator complex (from UniProt Q68E01 1-1043)
binding: binds

INTS13, subunit of the Integrator complex (from UniProt Q9NVM9 1-706)
binding: binds

SNRNP200 (from UniProt O75643 1-2136)
binding: binds

Topoisomerase I (TOP1) (from UniProt P11387 1-765) (enzyme)
binding: binds

ZFC3H1 (PAXT) (from UniProt O60293 1-1989)
binding: no binding

B1: ILF3 (protein, UniProt Q12906 1-894)
chain: MRPMRIFVNDDRHVMAKHSSVYPTQEELEAVQNMVSHTERALKAVSDWIDEQEKGSSEQAESDNMDVPPEDDSKEGAGEQKTEHMTRTLRGVMRVGLVAKGLLLKGDLDLELVLLCKEKPTTALLDKVADNLAIQLAAVTEDKYEILQSVDDAAIVIKNTKEPPLSLTIHLTSPVVREEMEKVLAGETLSVNDPPDVLDRQKCLAALASLRHAKWFQARANGLKSCVIVIRVLRDLCTRVPTWGPLRGWPLELLCEKSIGTANRPMGAGEALRRVLECLASGIVMPDGSGIYDPCEKEATDAIGHLDRQQREDITQSAQHALRLAAFGQLHKVLGMDPLPSKMPKKPKNENPVDYTVQIPPSTTYAITPMKRPMEEDGEEKSPSKKKKKIQKKEEKAEPPQAMNALMRLNQLKPGLQYKLVSQTGPVHAPIFTMSVEVDGNSFEASGPSKKTAKLHVAVKVLQDMGLPTGAEGRDSSKGEDSAEETEAKPAVVAPAPVVEAVSTPSAAFPSDATAEQGPILTKHGKNPVMELNEKRRGLKYELISETGGSHDKRFVMEVEVDGQKFQGAGSNKKVAKAYAALAALEKLFPDTPLALDANKKKRAPVPVRGGPKFAAKPHNPGFGMGGPMHNEVPPPPNLRGRGRGGSIRGRGRGRGFGGANHGGYMNAGAGYGSYGYGGNSATAGYSQFYSNGGHSGNASGGGGGGGGGSSGYGSYYQGDNYNSPVPPKHAGKKQPHGGQQKPSYGSGYQSHQGQQQSYNQSPYSNYGPPQGKQKGYNHGQGSYSYSNSYNSPGGGGGSDYNYESKFNYSGSGGRSGGNSYGSGGASYNPGSHGGYGGGSGGGSSYQGKQGGYSQSNYNSPGSGQNYSGPPSSYQSSQGGYGRNADHSMNYQYR
binding: binds

B2: ZCCHC8 (NEXT) (protein, UniProt Q6NZY4 1-707)
chain: MAAEVYFGDLELFEPFDHPEESIPKPVHTRFKDDDGDEEDENGVGDAELRERLRQCEETIEQLRAENQELKRKLNILTRPSGILVNDTKLDGPILQILFMNNAISKQYHQEIEEFVSNLVKRFEEQQKNDVEKTSFNLLPQPSSIVLEEDHKVEESCAIKNNKEAFSVVGSVLYFTNFCLDKLGQPLLNENPQLSEGWEIPKYHQVFSHIVSLEGQEIQVKAKRPKPHCFNCGSEEHQMKDCPMPRNAARISEKRKEYMDACGEANNQNFQQRYHAEEVEERFGRFKPGVISEELQDALGVTDKSLPPFIYRMRQLGYPPGWLKEAELENSGLALYDGKDGTDGETEVGEIQQNKSVTYDLSKLVNYPGFNISTPRGIPDEWRIFGSIPMQACQQKDVFANYLTSNFQAPGVKSGNKRSSSHSSPGSPKKQKNESNSAGSPADMELDSDMEVPHGSQSSESFQFQPPLPPDTPPLPRGTPPPVFTPPLPKGTPPLTPSDSPQTRTASGAVDEDALTLEELEEQQRRIWAALEQAESVNSDSDVPVDTPLTGNSVASSPCPNELDLPVPEGKTSEKQTLDEPEVPEIFTKKSEAGHASSPDSEVTSLCQKEKAELAPVNTEGALLDNGSVVPNCDISNGGSQKLFPADTSPSTATKIHSPIPDMSKFATGITPFEFENMAESTGMYLRIRSLLKNSPRNQQKNKKASE
binding: no binding
